Test results published in a collection of fitness landscapes (doi:10.1016/j.celrep.2020.107928).
In all, about 81,000 sequences were measured (“one-hybrid fitness for binding parS DNA”: median about -0.17, highest 2% from about 0.51 on). This is one part of the list.

B1: Caulobacter ParB omega fusion; a variant is named by its letters at X, in order, B8GW30 (parent)
chain: MESVVVGEPGMSEGRRGLGRGLSALLGEVDAAPAQAPGEQLGGSREAPIEILQRNPDQPRRTFREEDLEDLSNSIREKGVLQPILVRPSPDTAGEYQIVAGERAWRAAQRAGLKTVPIMVRELDDLAVLEIGIIENVQRADLNVLEEALSYKVLMEKFERTQENIAQTIGKSXSHVANXMRLLXLPDEVQSYLVSGELTAXHARAIAAAADPVALAKQIIEGGLSVRETEALARKAPNLSAGKSKGGRPPRVKDTDTQALESDLSSVLGLDVSIDHRGSTGTLTITYATLEQLDDLCNRLTRGI

Variants of: B1
Experiment: one-hybrid fitness for binding parS DNA (scaled: cognate 1, non-cognate 0); higher = stronger binding
Details: with parS DNA site
Method in brief: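 Fitness is the rescaled log change in variant-to-wild-type read ratio, measured by Illumina sequencing of plasmids before and after bacterial one-hybrid selection. The scale puts cognate at 1 and non-cognate at 0. Selection of Caulobacter ParB libraries, four specificity codons randomised, took place in E. coli USO with a HIS3 reporter, site 19 bp from the promoter, over 48 hours at 37°C on M9-minus-histidine with 0.1 mM IPTG and 5 mM 3-AT.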

| Variant | one-hybrid fitness for binding parS DNA |
| --- | --- |
| ISHS | ≤ 0.2 |
| LEYV | ≤ 0.2 |
| PSEQ | ≤ 0.2 |
| QTWG | ≤ 0.2 |
| LVVK | ≤ 0.2 |
| LNEW | ≤ 0.2 |
| RCQW | 0.24 |
| SYDM | ≤ 0.2 |
| RAHM | 0.329 |
| PNPI | ≤ 0.2 |
| DCST | ≤ 0.2 |
| ENMW | ≤ 0.2 |
| QVLV | ≤ 0.2 |
| MLKF | ≤ 0.2 |
| AAEF | ≤ 0.2 |
| PWQI | ≤ 0.2 |
| WLGF | ≤ 0.2 |
| VPKV | ≤ 0.2 |
| GRSI | ≤ 0.2 |
| SSTC | ≤ 0.2 |
| CGKR | ≤ 0.2 |
| AHMS | ≤ 0.2 |
| HVES | ≤ 0.2 |
| YKRA | ≤ 0.2 |

| Variant | one-hybrid fitness for binding parS DNA |
| --- | --- |
| MVIG | ≤ 0.2 |
| RIVN | 0.407 |
| QNDT | ≤ 0.2 |
| NYLR | ≤ 0.2 |
| SDEG | ≤ 0.2 |
| GHLG | ≤ 0.2 |
| SGCS | ≤ 0.2 |
| PSEA | ≤ 0.2 |
| CPLF | ≤ 0.2 |
| HETH | ≤ 0.2 |
| TRAN | ≤ 0.2 |
| PSSM | ≤ 0.2 |
| RPAS | ≤ 0.2 |
| IPEV | ≤ 0.2 |
| HNMT | ≤ 0.2 |
| DDRT | ≤ 0.2 |
| QKTN | ≤ 0.2 |
| IVLC | ≤ 0.2 |
| QGPF | ≤ 0.2 |
| NQFL | ≤ 0.2 |
| HVLY | ≤ 0.2 |
| NRLG | ≤ 0.2 |
| AGGT | ≤ 0.2 |
| EWTA | ≤ 0.2 |

| Variant | one-hybrid fitness for binding parS DNA |
| --- | --- |
| RRKM | 0.802 |
| IGQS | ≤ 0.2 |
| RWET | 0.437 |
| QGVC | ≤ 0.2 |
| CCEL | ≤ 0.2 |
| REDF | ≤ 0.2 |
| IRVI | ≤ 0.2 |
| HMEG | ≤ 0.2 |
| PYFR | ≤ 0.2 |
| PTHY | ≤ 0.2 |
| THGD | ≤ 0.2 |
| HQRP | ≤ 0.2 |
| WRRG | ≤ 0.2 |
| GQLL | ≤ 0.2 |
| ENCS | ≤ 0.2 |
| KPDF | ≤ 0.2 |
| TEVR | ≤ 0.2 |
| NGVM | ≤ 0.2 |
| HWMR | ≤ 0.2 |
| GANS | ≤ 0.2 |
| EIKS | ≤ 0.2 |
| TGLI | ≤ 0.2 |
| GRRA | ≤ 0.2 |
| LTFG | ≤ 0.2 |

| Variant | one-hybrid fitness for binding parS DNA |
| --- | --- |
| YVWR | ≤ 0.2 |
| HLQG | ≤ 0.2 |
| TMRL | ≤ 0.2 |
| YETI | ≤ 0.2 |
| MHPM | ≤ 0.2 |
| DCDR | ≤ 0.2 |
| MEWS | ≤ 0.2 |
| VHKK | ≤ 0.2 |
| TFSM | ≤ 0.2 |
| PGRE | ≤ 0.2 |
| NKPG | ≤ 0.2 |
| FLVR | ≤ 0.2 |
| FRGT | ≤ 0.2 |
| MSAG | ≤ 0.2 |
| VTFA | ≤ 0.2 |
| WLHR | ≤ 0.2 |
| SVGG | ≤ 0.2 |
| FRPG | ≤ 0.2 |
| GFHS | ≤ 0.2 |
| PHHN | ≤ 0.2 |
| GMFS | ≤ 0.2 |
| CVFI | ≤ 0.2 |
| YNGT | ≤ 0.2 |
| RWYA | 0.348 |

| Variant | one-hybrid fitness for binding parS DNA |
| --- | --- |
| AYFT | ≤ 0.2 |
| PVIR | ≤ 0.2 |
| QNYW | ≤ 0.2 |
| NMKF | ≤ 0.2 |
| EPFS | ≤ 0.2 |
| AARK | ≤ 0.2 |
| LNIS | ≤ 0.2 |
| FCKT | ≤ 0.2 |
| IFAG | ≤ 0.2 |
| KRMT | ≤ 0.2 |
| GRTN | ≤ 0.2 |
| DQSC | ≤ 0.2 |
| LTSI | ≤ 0.2 |
| NAQA | ≤ 0.2 |
| HKTV | ≤ 0.2 |
| LSTV | ≤ 0.2 |
| EHNT | ≤ 0.2 |
| HSGF | ≤ 0.2 |
| PQKF | ≤ 0.2 |
| SVDT | ≤ 0.2 |
| IGSS | ≤ 0.2 |
| PATF | ≤ 0.2 |
| QNLT | ≤ 0.2 |
| SILS | ≤ 0.2 |

| Variant | one-hybrid fitness for binding parS DNA |
| --- | --- |
| RMSW | 0.229 |
| QEHS | ≤ 0.2 |
| QHFM | ≤ 0.2 |
| RHTG | 0.967 |
| YFHR | ≤ 0.2 |
| GRWV | ≤ 0.2 |
| IPLW | ≤ 0.2 |
| RSDD | ≤ 0.2 |
| FANN | ≤ 0.2 |
| GISK | 0.234 |
| QMEH | ≤ 0.2 |
| HNYC | ≤ 0.2 |
| HVFG | ≤ 0.2 |
| PISQ | ≤ 0.2 |
| REHL | ≤ 0.2 |
| FAKW | ≤ 0.2 |
| SAPP | ≤ 0.2 |
| EGKS | ≤ 0.2 |
| DPRW | ≤ 0.2 |
| TRCA | ≤ 0.2 |
| SSPL | ≤ 0.2 |
| SFHK | ≤ 0.2 |
| GPTL | ≤ 0.2 |
| DAKC | ≤ 0.2 |

| Variant | one-hybrid fitness for binding parS DNA |
| --- | --- |
| HYPS | ≤ 0.2 |
| RFSR | ≤ 0.2 |
| HIMS | ≤ 0.2 |
| MPTP | ≤ 0.2 |
| TIVC | ≤ 0.2 |
| EAAY | ≤ 0.2 |
| SNKH | ≤ 0.2 |
| EWVS | ≤ 0.2 |
| KVSM | ≤ 0.2 |
| HWVK | ≤ 0.2 |
| YLDS | ≤ 0.2 |
| GFQQ | ≤ 0.2 |
| LKRN | ≤ 0.2 |
| VCPT | ≤ 0.2 |
| SRWP | ≤ 0.2 |
| EWTF | ≤ 0.2 |
| RRLY | 0.279 |
| RQRK | ≤ 0.2 |
| KNWL | ≤ 0.2 |
| PEIG | ≤ 0.2 |
| RHMC | 0.908 |
| QFIF | ≤ 0.2 |
| ADRY | ≤ 0.2 |
| YEAW | 0.349 |

| Variant | one-hybrid fitness for binding parS DNA |
| --- | --- |
| ECGL | ≤ 0.2 |
| MPEC | ≤ 0.2 |
| MTDL | ≤ 0.2 |
| CWVS | 0.21 |
| PGKP | ≤ 0.2 |
| LADG | ≤ 0.2 |
| RNLQ | ≤ 0.2 |
| SWEP | ≤ 0.2 |
| VRSA | ≤ 0.2 |
| PGPC | ≤ 0.2 |
| DTRL | ≤ 0.2 |
| GGPI | ≤ 0.2 |
| SPCP | ≤ 0.2 |
| QIGR | ≤ 0.2 |
| TMVP | ≤ 0.2 |
| FNAY | ≤ 0.2 |
| PTGH | ≤ 0.2 |
| VLTS | ≤ 0.2 |
| ASAA | ≤ 0.2 |
| IRWR | ≤ 0.2 |
| GIQS | ≤ 0.2 |
| ANPV | ≤ 0.2 |
| QMTR | ≤ 0.2 |
| WLQC | ≤ 0.2 |

| Variant | one-hybrid fitness for binding parS DNA |
| --- | --- |
| ITIN | ≤ 0.2 |
| RVHM | 0.314 |
| ARSQ | ≤ 0.2 |
| TNRY | ≤ 0.2 |
| LGDT | ≤ 0.2 |
| SERV | ≤ 0.2 |
| AECV | ≤ 0.2 |
| NCAL | ≤ 0.2 |
| QLEN | ≤ 0.2 |
| RWTT | 0.705 |
| VPRD | ≤ 0.2 |
| CSRG | ≤ 0.2 |
| QRWD | ≤ 0.2 |
| MNAR | ≤ 0.2 |
| NHKA | ≤ 0.2 |
| QDTL | ≤ 0.2 |
| WSPV | ≤ 0.2 |
| FIPT | ≤ 0.2 |
| PQYC | ≤ 0.2 |
| DMGG | ≤ 0.2 |
| CCPH | ≤ 0.2 |
| YNKG | ≤ 0.2 |
| EYQT | ≤ 0.2 |
| DSKG | ≤ 0.2 |

| Variant | one-hybrid fitness for binding parS DNA |
| --- | --- |
| WRKY | ≤ 0.2 |
| MVAR | ≤ 0.2 |
| ESPP | ≤ 0.2 |
| WWKT | ≤ 0.2 |
| RNKE | ≤ 0.2 |
| RQKF | 0.328 |
| VMSG | ≤ 0.2 |
| EGMA | ≤ 0.2 |
| FIIS | ≤ 0.2 |
| QATY | ≤ 0.2 |
| IRVM | ≤ 0.2 |
| RWRM | 0.31 |
| RYFR | ≤ 0.2 |
| RQQP | ≤ 0.2 |
| RTRS | 0.83 |
| PKTD | ≤ 0.2 |
| EVNR | ≤ 0.2 |
| QQIA | ≤ 0.2 |
| QDNR | ≤ 0.2 |
| ITYL | ≤ 0.2 |
| SPRP | ≤ 0.2 |
| LEAA | ≤ 0.2 |
| YDSC | ≤ 0.2 |
| RLRG | 0.966 |

| Variant | one-hybrid fitness for binding parS DNA |
| --- | --- |
| RFRV | ≤ 0.2 |
| FACW | ≤ 0.2 |
| CLNT | ≤ 0.2 |
| MTGR | ≤ 0.2 |
| RPIL | ≤ 0.2 |
| NGPL | ≤ 0.2 |
| RDRY | ≤ 0.2 |
| IATK | ≤ 0.2 |
| AKPM | ≤ 0.2 |
| EMMS | ≤ 0.2 |
| HKMC | ≤ 0.2 |
| QIRW | ≤ 0.2 |
| RCRL | ≤ 0.2 |
| RSCV | ≤ 0.2 |
| CHTP | ≤ 0.2 |
| WPMC | ≤ 0.2 |
| SGDY | ≤ 0.2 |
| LPDM | ≤ 0.2 |
| TVHT | ≤ 0.2 |
| YYSE | ≤ 0.2 |
| LCAL | ≤ 0.2 |
| PNNK | ≤ 0.2 |
| EQKT | ≤ 0.2 |
| VVYY | ≤ 0.2 |

| Variant | one-hybrid fitness for binding parS DNA |
| --- | --- |
| WDAT | ≤ 0.2 |
| LTHT | ≤ 0.2 |
| SIPC | ≤ 0.2 |
| QMNM | ≤ 0.2 |
| AHGC | ≤ 0.2 |
| PAFY | ≤ 0.2 |
| ADLI | ≤ 0.2 |
| WPCR | ≤ 0.2 |
| NLQT | ≤ 0.2 |
| RRAE | ≤ 0.2 |
| GYRR | ≤ 0.2 |
| NNQS | ≤ 0.2 |
| LNRT | ≤ 0.2 |
| GQVS | ≤ 0.2 |
| QDQG | ≤ 0.2 |
| TCVM | ≤ 0.2 |
| WHNL | ≤ 0.2 |
| YPFG | ≤ 0.2 |
| RNTS | 0.964 |
| TQQW | ≤ 0.2 |
| PNQS | ≤ 0.2 |
| TPTY | ≤ 0.2 |
| TCMC | ≤ 0.2 |
| FCRM | ≤ 0.2 |

| Variant | one-hybrid fitness for binding parS DNA |
| --- | --- |
| VSQG | ≤ 0.2 |
| PCTR | ≤ 0.2 |
| LHNC | ≤ 0.2 |
| KIAG | ≤ 0.2 |
| CWPI | ≤ 0.2 |
| SMTN | ≤ 0.2 |
| LVYC | ≤ 0.2 |
| TFTM | ≤ 0.2 |
| FCKS | ≤ 0.2 |
| AASF | ≤ 0.2 |
| HAPV | ≤ 0.2 |
| RQIG | 0.805 |
| MYVG | ≤ 0.2 |
| LQTI | ≤ 0.2 |
| CHES | ≤ 0.2 |
| LVNE | ≤ 0.2 |
| QAWF | ≤ 0.2 |
| DNCR | ≤ 0.2 |
